Results published in PubChem BioAssay AID686971 (National Center for Advancing Translational Sciences (NCATS), 2013).
About 7,500 (2.1%) of roughly 360,000 compounds were called active. The shares of active, inactive and inconclusive entries below differ from those in the screen. The call rests on the fitted dose curve; in most records, active means well fitted cell-killing curve with a large enough effect; inconclusive means small, poorly fitted or top-dose-only effect, or effect the other way, or another doubt; inactive means no such curve, though single readings can be large or run the other way. Potencies of inconclusive entries are left out as doubtful fits.

assay: qHTS for induction of synthetic lethality in tumor cells producing 2HG: qHTS for the HT-1080-IDH1KD cell line; settings: HT-1080 IDH1 knockdown viability, ATP luminescence, 48 h; activity, negative = toxicity: at 46.1 µM (top of the series) unless noted;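 on activity, negative = toxicity: 0% = DMSO wells and -100% = cell-free medium wells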
Summary of the method: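 Viability of IDH1-knockdown HT-1080 fibrosarcoma cells was assessed by CellTiter-Glo after 48 h at 37 °C with titrated compound; concentration-effect curves were classified by fit quality and response size.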
Potency means the concentration at half of the fitted maximal effect; tags describe the fitted curve by direction and shape.

| SMILES | Potency | activity, negative = toxicity |
| --- | --- | --- |
| O=C(CCCOc1ccc(Cl)cc1Cl)Nc1ccccc1C(=O)O | inconclusive [cytotoxic, single point] | – |
| CCOC(=O)c1c(SCCN2CCCC2)n(-c2ccccc2)c(=S)n(-c2ccccc2)c1=O | active: 7.31 µM | – |
| CC(C)(C)n1nnnc1C(CCc1ccccc1)N1CCN(C/C=C/c2ccccc2)CC1 (stereo unspecified) | inconclusive [cytotoxic, single point] | – |
| O=C1CN(c2nc(-c3cccnc3)nc3sc4c(c23)CCCC4)CCN1 | inconclusive [cytotoxic, single point] | – |
| CCC(=O)N(CCC(c1ccccc1)c1ccco1)Cc1cccs1 (stereo unspecified) | inconclusive [cytotoxic, single point] | – |
| CC(=O)Nc1ccc(NC(=O)CSc2ncc(C(=O)Nc3ccc(Cl)cc3)c(=O)n2C)cc1 | inconclusive [cytotoxic, single point] | – |
| CC1CCN(CC(O)COCCC23CC4CC(CC(C4)C2)C3)CC1 (stereo unspecified) | inconclusive [cytotoxic, single point] | – |
| CN1CCCN(S(=O)(=O)c2cccc(C#N)c2)CC1 | – | inactive: 10.3% |
| COc1cccc(NC(=O)C2C3CCC4C(CCC32)C4(Cl)Cl)c1 (stereo unspecified) | – | inactive: -10.5% |
| CC(C)CC(N)c1csc(NC(=O)C(c2ccccc2)c2ccccc2)n1 (stereo unspecified) | active: 2.91 µM | – |
| CC(=O)Nc1ccc(NC(=O)C(C)OC(=O)c2ccc(S(=O)(=O)N3CCCCCC3)cc2)cc1 (stereo unspecified) | inconclusive [cytotoxic, single point] | – |
| O=C1Nc2cccnc2N(C(=O)CCl)c2ccccc21 | active: 16.4 µM | – |
| CC(C)N1CCc2c(sc(NC(=O)c3ccc(C(=O)c4ccccc4)cc3)c2C(N)=O)C1 | active: 18.4 µM | – |
| COc1cc(/C=C/C(=O)Nc2cccc(S(=O)(=O)N3CCOCC3)c2)ccc1OCC#N | inconclusive [cytotoxic, single point] | – |
| Cc1ccc(/C=C2/CNC/C(=C/c3ccc(C)cc3)C2=O)cc1 | active: 23.1 µM | – |
| Cc1ccc(C2(C)NC(=O)N(CC(=O)Nc3ccc(-c4nc5ccc(C)cc5s4)cc3)C2=O)cc1 (stereo unspecified) | inconclusive [cytotoxic, single point] | – |
| CCOc1ccc(N(CC(=O)Nc2ccccc2OCC)S(=O)(=O)c2c(C)noc2C)cc1 | active: 2.31 µM | – |
| O=S(=O)(Cc1ccccc1)CS(=O)(=O)Cc1ccccc1 | – | inactive: -9.44% |
| CCC(C)NC(=O)Cn1c(=O)n(CCCCC(=O)NCc2ccco2)c(=O)c2ccccc21 (stereo unspecified) | – | inactive: -1.08% |
| CC1(Cc2ccccc2Cl)C(=O)Nc2cc(-c3ccccc3Cl)ccc21 (stereo unspecified) | inconclusive [cytotoxic, single point] | – |
| CCn1c2ccccc2c2cc(NC(=O)CSc3nccc(=O)[nH]3)ccc21 | inconclusive [cytotoxic, single point] | – |
| COC(=O)[C@@]12C[C@@H](CC(=O)NCC34CC5CC(CC(C5)C3)C4)C(=O)N(Cc3ccccc3)C1=CCC(C)(C)C2 | inconclusive [cytotoxic, single point] | – |
| COCCNC(=S)N/N=C(\C)c1cccc(OC)c1 | – | inactive: 13.3% |
| COc1cc2c(cc1NC(=O)c1ccc(C(C)(C)C)cc1)CCCC2 | inconclusive [cytotoxic, partial curve] | – |

| SMILES | Potency | activity, negative = toxicity |
| --- | --- | --- |
| CCC1(C)Cc2c(sc3nnn(CC(=O)Nc4cccc5ccccc45)c(=O)c23)CO1 (stereo unspecified) | inconclusive [cytotoxic, single point] | – |
| CN1CCN(C2=Cc3ccccc3Sc3cc(F)c(Cl)cc32)CC1 | inconclusive [cytotoxic, single point] | – |
| CCN(CC)S(=O)(=O)c1cccc(-n2c(O)c(C=Nc3ccccc3C(=O)O)c3ccccc3c2=O)c1 | inconclusive [cytotoxic, partial curve] | – |
| CCOC(=O)C1CCCN(Cc2c(Cl)cccc2Cl)C1 (stereo unspecified) | inconclusive [cytotoxic, single point] | – |
| CCc1ccc(C(=O)c2oc3nc(C)cc(C)c3c2N)cc1 | inconclusive [cytotoxic, single point] | – |
| Cn1c2ccccc2c(=O)c2c(=O)n(Cc3ccco3)c(COc3ccccc3)nc21 | inconclusive [cytotoxic, partial curve] | – |
| Cn1c(CCN2CCCC2)nc2cc(NS(=O)(=O)c3ccccc3)ccc21 | inconclusive [cytotoxic, single point] | – |
| CCOC(=O)c1c(-c2ccc(C)cc2)csc1NC(=O)/C(C#N)=C/c1ccc(O)c(OC)c1 | – | inactive: -1.8% |
| CCC(=O)c1ccc(OCc2ccccc2)c(OC)c1 | – | inactive: 6.09% |
| CC(=O)c1cccc(-c2ccnc3c2CC(C(=O)Nc2ccc(Cl)c(C(F)(F)F)c2)O3)c1 (stereo unspecified) | inconclusive [cytotoxic, single point] | – |
| c1ccc(CN2CCC(=NNc3nc4ccccc4[nH]3)CC2)cc1 | inconclusive [cytotoxic, partial curve] | – |
| COc1ccc(S(=O)(=O)Nc2nc(C(F)(F)F)cs2)cc1 | – | inactive: -0.334% |
| c1ccc2c(CNc3ccc(CNc4ncn[nH]4)cc3)cccc2c1 | inconclusive [cytotoxic, single point] | – |
| COc1cc(C2Nc3ccc4ncccc4c3C3=C2C(=O)CCC3)ccc1O (stereo unspecified) | active: 5.8 µM | – |
| CSc1ncccc1C(=O)OCC(=O)Nc1cc(C(F)(F)F)ccc1N1CCOCC1 | inconclusive [cytotoxic, partial curve] | – |
| O=C(CN(C1CCCCC1)C1CCCCC1)N1CCc2ccccc2C1 | inconclusive [cytotoxic, single point] | – |
| COc1ccc(NC(=O)c2cc(-c3cc(Cl)ccc3O)n[nH]2)c(OC)c1 | inconclusive [cytotoxic, single point] | – |
| COc1ccc(C(CNC(=O)C(C)Sc2ccccc2)N2CCOCC2)cc1 (stereo unspecified) | – | inactive: 14.1% |
| CC(O)(c1ccc(F)c(F)c1)c1nc(-c2ccc3ccccc3c2)cs1 (stereo unspecified) | inconclusive [cytotoxic, single point] | – |
| COC(=O)[C@H]1[C@H]2C[C@@H]3c4[nH]c5cc(OC)ccc5c4CCN3C[C@H]2C[C@@H](OC(=O)c2cc(OC)c(OC)c(OC)c2)[C@@H]1OC | inconclusive [cytotoxic, single point] | – |
| CC(C)(C)c1nnc(NC(=O)CCS(=O)(=O)c2ccccc2)s1 | inconclusive [cytotoxic, single point] | – |
| CC(=O)Oc1ccc2ccccc2c1C(NC(=O)Cc1ccccc1)c1ccccc1Cl (stereo unspecified) | inconclusive [cytotoxic, single point] | – |
| Cc1[nH]nc2c1C(c1ccco1)C(C#N)=C(N)O2 (stereo unspecified) | – | inactive: -1.16% |
| CN(/N=C/c1ccc(O)cc1O)c1nc(-c2ccccc2)cc(-c2ccccc2)n1 | inconclusive [cytotoxic, single point] | – |

| SMILES | Potency | activity, negative = toxicity |
| --- | --- | --- |
| CN(C)S(=O)(=O)c1cccc(COC(=O)c2cccnc2Cl)c1 | – | inactive: -4.17% |
| Cc1ccc(SC(CC(=O)c2ccc(C(C)(C)C)cc2)C(=O)O)cc1 (stereo unspecified) | inconclusive [cytotoxic, single point] | – |
| O=C(N/N=C\c1ccccn1)c1cccc(C(=O)N/N=C\c2ccccn2)n1 | – | inactive: -14.3% |
| CCCCC(=O)Nc1cccc(-c2nnc(-c3ccccc3)o2)c1 | inconclusive [cytotoxic, single point] | – |
| Cc1cccc(-n2cc(CNCCc3nc(C)cc(C)n3)c(-c3cccc(F)c3)n2)c1 | inconclusive [cytotoxic, single point] | – |
| COc1ccnc2c1c(=O)n(Cc1c(F)cccc1Cl)c(=O)n2C | – | inactive: 0% |
| O=C(CCN1CCN(S(=O)(=O)c2cccc([N+](=O)[O-])c2)CC1)Nc1ccccc1F | inconclusive [rising, partial curve] | – |
| COc1ccccc1-c1cc2nc(NCCc3ccncc3)ccn2n1 | – | inactive: 8.77% |
| O=C(CN(C(=O)CCC(=O)Nc1nccs1)c1ccccc1F)NCc1ccccc1 | – | inactive: 18.1% |
| Cc1nn(-c2ccccc2)c2sc(C(=O)NCCN3CCOCC3)cc12 | inconclusive [cytotoxic, single point] | – |
| CC1(C)CCC/C(=C\c2ccccc2)C1=O | – | inactive: 8.58% |
| C[C@H](CO)N1C[C@H](C)[C@@H](CN(C)S(C)(=O)=O)Oc2ccc(NS(=O)(=O)c3cn(C)cn3)cc2C1=O | – | inactive: 9.05% |
| Cn1c(SCC(=O)NC2CC2)nnc1C(F)(F)F | inconclusive [rising, single point] | – |
| CCN(CC)CCN(Cc1cc2cc3c(cc2[nH]c1=O)OCO3)C(=S)NCc1ccco1 | – | inactive: -9.24% |
| Cc1ccnc(NS(=O)(=O)c2ccc(NC(=O)/C=C/c3cccs3)cc2)n1 | – | inconclusive: -31.3% [cytotoxic] |
| Nc1nn(S(=O)(=O)c2cccc3nsnc23)cc1-c1ccc(Br)cc1 | inconclusive [cytotoxic, single point] | – |
| CC(=O)c1ccc(NC(=O)CSc2ccsc2[N+](=O)[O-])cc1 | – | inactive: -2.3% |
| CC(C)CNC(=O)CC(c1ccccc1)c1ccccc1 | – | inactive: 1.64% |
| CS(=O)(=O)c1ccc2nc(NC(=O)c3cccs3)sc2c1 | active: 23.1 µM | – |
| O=C(CCCSc1nc2ccccc2c(=O)[nH]1)c1ccc(F)cc1 | – | inactive: -14.8% |
| Cc1cc(C)nc(SCc2ccc(C(=O)N/N=C/c3ccncc3)cc2)n1 | – | inactive: -9.51% |
| CCOC(=O)C1=C(CC)Nc2ccccc2N=C1NC(=O)c1ccc(S(=O)(=O)N(C)C)cc1 | inconclusive [cytotoxic, single point] | – |
| CN(C(=O)c1ccc(NC(=O)Cc2ccc(NC(=O)C3CCN(C(=O)C4CCCCC4)CC3)cc2)cc1)C1CCCC1 | inconclusive [cytotoxic, single point] | – |
